{
  "source": "patent US7012061B1",
  "about": "(New York University, priority 1998, dated 2006)",
  "origin": "cited, not measured here",
  "test_system": "brain tumor microvessel permeability",
  "settings": "rat, in vivo; cited from earlier work",
  "data": [
    {"molecule": "COC(=O)[C@@H](N)CCCNC(=N)N[N+](=O)[O-]", "note": "[NG-nitro-L-arginine methylester]", "values": [
      {"measurement": "Bradykinin-induced increase of tracer transport into brain tumors", "result": "significantly inhibited"}
    ]}
  ]
}
